Here are results for 42 sequences from article PMC7819943, “Rice protein-binding microarrays: a tool to detect cis-acting elements near promoter regions in rice”.

The list shows a part of the results.

For this assay, the target named is T1, OsWOX13 (Oryza sativa, UniProt Q5QMM3 1-267).
T1 sequence: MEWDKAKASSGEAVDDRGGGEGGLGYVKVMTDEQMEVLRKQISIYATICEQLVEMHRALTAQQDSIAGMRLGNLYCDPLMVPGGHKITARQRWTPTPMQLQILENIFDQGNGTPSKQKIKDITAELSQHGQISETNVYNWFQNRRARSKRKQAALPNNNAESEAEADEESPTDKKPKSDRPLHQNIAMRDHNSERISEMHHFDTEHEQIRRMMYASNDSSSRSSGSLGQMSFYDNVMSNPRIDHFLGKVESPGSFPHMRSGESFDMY
Nature of the assay: protein-binding microarray (RPBM); PBS, 2% BSA, 51.3 ng/ul salmon testes DNA, 50 uM zinc acetate, 200 nM TF, 25 C, 1 h; high values mean tight binding. Particulars: protein: recombinant; tags: N-terminal polyhistidine and DsRed monomer fusion (pET32a); label: CyDye5-dUTP incorporated in the synthesized complementary strand; 3' TTTTT single-stranded linker to array surface; dsDNA, one strand shown. Put shortly: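 Binding signal here means per-feature fluorescence intensity in arbitrary units. The values were read on an Axon 4000B scanner after a custom Agilent array, double-stranded by primer extension with Cy5-dUTP, was incubated with 200 nM protein at 25 °C for 1 h in PBS with 2% BSA, salmon testes DNA and 50 µM zinc acetate, then washed. The proteins were transcription factors with an N-terminal polyhistidine tag and DsRed, expressed in E. coli BL21-CodonPlus and purified on Ni–NTA.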
On to “TTTAGAATTGTCATTATTTCAGTTATCTCTTAATTGTATTCGGAGTCACCTAGTGCAG”, for which the binding signal is 4520 fluorescence intensity (a.u.).

For the sequence “AAAATTGAAAGTTTGATTGAAATTAGAACGATGTGACGAACGGAGTCACCTAGTGCAG”, the binding signal is 35500 fluorescence intensity (a.u.).

For the sequence “AATAAATTATCTTCTACTTTCTTATCTGCTCTTGGTTCGCCGGAGTCACCTAGTGCAG”, the binding signal is 27500 fluorescence intensity (a.u.).

Turning to “TCTGTATGGTCTACTTGTTTGATTGATTGATAATTTTACACGGAGTCACCTAGTGCAG”, the binding signal was 22300 fluorescence intensity (a.u.).

For “AAAATTGAATTCACCTGTTGCAACACATCAACATCTTTGCCGGAGTCACCTAGTGCAG”, the binding signal is 6830 fluorescence intensity (a.u.).

Consider “TCATGATTTTCTAAAATAAAATATTTAATAGTGAATTTCTCGGAGTCACCTAGTGCAG”, for which the binding signal is 6240 fluorescence intensity (a.u.).

With “ATTAAATTGAGGGACCTCTGGTGAACTTATTCCTTCCGTACGGAGTCACCTAGTGCAG”, the binding signal was 18700 fluorescence intensity (a.u.).

Turning to “CTTGATAAGCTCAATCAAGCACAGAGCCACAGGCCTGCCTCGGAGTCACCTAGTGCAG”, the binding signal was 24400 fluorescence intensity (a.u.).

Consider “GGATAAAGGACTTGACAATGTGATTGAGCACAACTGCACACGGAGTCACCTAGTGCAG”, for which the binding signal is 5680 fluorescence intensity (a.u.).

As to “ATATTGATTATCGTTAATCATACATAGAAGTTTAGTAATACGGAGTCACCTAGTGCAG”, the binding signal was 20100 fluorescence intensity (a.u.).

Take “CTCTCAACATGTTGATTAATTACTCACTAGTATATATAATCGGAGTCACCTAGTGCAG”: the binding signal is 3850 fluorescence intensity (a.u.).

For the sequence “ACTTGACTGACTCTTATATTGCTCTTTTGTTTGGAAAATTCGGAGTCACCTAGTGCAG”, the binding signal was 16000 fluorescence intensity (a.u.).

As for “GCATTGATAGAGAGTGACGATGAACACGATATTTATCCTCCGGAGTCACCTAGTGCAG”, the binding signal is 10100 fluorescence intensity (a.u.).

For “CAGATCGAAATAGACAGACTCTGATCGACTGCCATTATCCCGGAGTCACCTAGTGCAG”, the binding signal was 9460 fluorescence intensity (a.u.).

Regarding “CTGTTTAGATTGTTGCTAAAATAAACCTTACCAAATTTGTCGGAGTCACCTAGTGCAG”, the binding signal is 9880 fluorescence intensity (a.u.).

Take “CCAAATGATATAATCATGGCACATGGAGTACTGCTTAAGACGGAGTCACCTAGTGCAG”: the binding signal was 9170 fluorescence intensity (a.u.).

Regarding “GTAGCTGATTACCAGCTCTTCTCTCTTCTCATTGAGAAGACGGAGTCACCTAGTGCAG”, the binding signal was 4180 fluorescence intensity (a.u.).

As to “TAATCTTTTGTTAATTAACCCAAGCTAGTGAAGTGTAAGTCGGAGTCACCTAGTGCAG”, the binding signal is 5250 fluorescence intensity (a.u.).

“CAAAACTAAAATGTTATCATATAATTATATATTTAAGACCCGGAGTCACCTAGTGCAG”: the binding signal was 8760 fluorescence intensity (a.u.).

“CCAATCCAATCAGTGCCTCTCCTCTCCTTCCCGTCCGCATCGGAGTCACCTAGTGCAG”: the binding signal was 5780 fluorescence intensity (a.u.).

Turning to “GTGTTAAATTATAAATTGTGTTTCTGATTACAGGCTTAGACGGAGTCACCTAGTGCAG”, the binding signal was 18900 fluorescence intensity (a.u.).

For “CGAAGATTATTTGAACCATAATTTTCTCATTGGGTTAACCCGGAGTCACCTAGTGCAG”, the binding signal was 4840 fluorescence intensity (a.u.).

As for “GCCTATCACTCAATCACCTCCTTCCCACGCAAAACAACTCCGGAGTCACCTAGTGCAG”, the binding signal is 10800 fluorescence intensity (a.u.).

Regarding “CCTGCATGATTTGCGGCTCCTCCTCCGTCCATCCAGGCTGCGGAGTCACCTAGTGCAG”, the binding signal is 14200 fluorescence intensity (a.u.).

Consider “CCCTAATCCCATTTAATCAGCACAGCTTCTTAATTACTCCCGGAGTCACCTAGTGCAG”, for which the binding signal is 6810 fluorescence intensity (a.u.).

For the sequence “TCTAATTAATCCATGATTAGCCTATGTGATGCTACAGTAACGGAGTCACCTAGTGCAG”, the binding signal was 25100 fluorescence intensity (a.u.).

For “CAGATAAAATTGACTTATTAATCTTGGGAAGGCCGTTACTCGGAGTCACCTAGTGCAG”, the binding signal was 16300 fluorescence intensity (a.u.).

Regarding “TGTAATTAAACTTTAATTTTACTATAGTTATATCTTAAAGCGGAGTCACCTAGTGCAG”, the binding signal is 34700 fluorescence intensity (a.u.).

As to “AGAACATAATTAATCAATTATTAGTTTTATAAACTTAAAACGGAGTCACCTAGTGCAG”, the binding signal is 9640 fluorescence intensity (a.u.).

“TTGATTAGTATAACTAGCCAATTGATCTAATTGCGTGCCTCGGAGTCACCTAGTGCAG”: the binding signal was 52200 fluorescence intensity (a.u.).

Turning to “TAATGATACTAATTGGTAATTGCAACTTGGACGTTTAGACCGGAGTCACCTAGTGCAG”, the binding signal was 22700 fluorescence intensity (a.u.).

Consider “ATGTTCTTTGCTGATTGCTAACCAGAAGAGAAGAAACCCTCGGAGTCACCTAGTGCAG”, for which the binding signal is 5410 fluorescence intensity (a.u.).

For the sequence “GTTTTAAATGACCAGTTAGTTACAGGCTTACAGCTAGCCACGGAGTCACCTAGTGCAG”, the binding signal was 8660 fluorescence intensity (a.u.).

Turning to “CTTACTCAATTAAAGCTGTTTGCTGTTTCGTGGTTATCACCGGAGTCACCTAGTGCAG”, the binding signal was 7180 fluorescence intensity (a.u.).

Consider “ATTACATACCTGATTGAGTTGGTACTACAAGGCAGGGAGCCGGAGTCACCTAGTGCAG”, for which the binding signal is 16400 fluorescence intensity (a.u.).

“ACTAATTATTTAGATGGTCCAAGAGAAACGAGATGTGTCACGGAGTCACCTAGTGCAG”: the binding signal is 23900 fluorescence intensity (a.u.).

Take “CAGTATAGATTTGTTAAGTTTATTTATTAAAATATTTTCTCGGAGTCACCTAGTGCAG”: the binding signal is 3190 fluorescence intensity (a.u.).

On to “CCACGCCAATTAGCATCCCACGTTTCGCCTTTGATTGTGGCGGAGTCACCTAGTGCAG”, for which the binding signal is 10600 fluorescence intensity (a.u.).

In the case of “TTTTAAAATTTAAATTTTATATAGTTCAATCAAACTCGGACGGAGTCACCTAGTGCAG”, the binding signal was 21700 fluorescence intensity (a.u.).

Turning to “AACGAAAGATTGAACCCCTGACCGGACCACTGCTACTTTGCGGAGTCACCTAGTGCAG”, the binding signal is 4720 fluorescence intensity (a.u.).

“AATAAATTTGCAAAATCTAATAAGTACATAGTAGAGTGCACGGAGTCACCTAGTGCAG”: the binding signal is 15700 fluorescence intensity (a.u.).

As to “CCCTCTAATGATTAAGAGCCGTATTGCTTTAGATCTAATACGGAGTCACCTAGTGCAG”, the binding signal is 6200 fluorescence intensity (a.u.).
